Among all 360,000 compounds or so, about 25,000 (6.9%) were called active. The shares of active, inactive and inconclusive entries below differ from those in the screen. Calls come from the whole dose curve; as a rule, active = well fitted inhibition curve with a large enough effect; inconclusive = small, poorly fitted or top-dose-only effect; inactive = flat fitted curve, though single readings scatter. Potencies beside an inconclusive call are fits to weak or partial responses and may not hold up.
What follows are compounds tested against Luciferin 4-monooxygenase (Photinus pyralis) (UniProt P08659) (assay: qHTS profiling assay for firefly luciferase inhibitor/activator using purifed enzyme and Km concentrations of substrates (counterscreen for miR-21 project)). Conditions: purified FLuc, luminescence inhibition; series mostly up to 57.5 µM; activity change, negative = inhibition: at the top concentration.
Chain of UniProt P08659 (P08659 whole entry, looked up): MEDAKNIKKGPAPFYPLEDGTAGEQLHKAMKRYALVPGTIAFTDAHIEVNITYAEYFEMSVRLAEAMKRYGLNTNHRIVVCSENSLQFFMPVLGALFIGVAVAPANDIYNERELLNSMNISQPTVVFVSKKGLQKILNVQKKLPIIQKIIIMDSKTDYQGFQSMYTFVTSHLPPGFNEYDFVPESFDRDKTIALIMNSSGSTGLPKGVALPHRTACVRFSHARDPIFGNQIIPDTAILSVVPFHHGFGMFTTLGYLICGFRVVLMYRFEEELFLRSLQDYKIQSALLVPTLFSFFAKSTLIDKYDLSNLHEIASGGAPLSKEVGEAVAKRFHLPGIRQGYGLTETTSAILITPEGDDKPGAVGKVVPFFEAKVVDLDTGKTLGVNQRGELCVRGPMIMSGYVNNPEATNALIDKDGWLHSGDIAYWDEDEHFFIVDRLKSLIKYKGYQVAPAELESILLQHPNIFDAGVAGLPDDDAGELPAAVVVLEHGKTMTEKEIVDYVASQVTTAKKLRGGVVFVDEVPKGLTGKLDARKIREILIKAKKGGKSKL
Outline: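 Biochemical qHTS of compounds, final roughly 60 µM downward over six points, against 10 nM purified firefly luciferase using Km concentrations of substrates (10 uM D-luciferin, 10 uM ATP) in Tris acetate pH 7.5 buffer; luminescence output.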
Note: nearly all actives have a fitted effect of over 55% in size.
Potency is the fitted concentration of half-maximal effect; tags give direction and shape of the fitted curve.
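Throughout, for activity change, negative = inhibition: plate controls were vehicle for no effect and reference inhibitor for full effect.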

Row | SMILES | Potency | activity change, negative = inhibition
1 | Oc1ccc(/C=N\Nc2nncc(-c3ccccc3)n2)cc1 | inconclusive: 23.9 µM [inhibitor, partial curve] | 
2 | Cc1ccc(CNC(=O)c2ccc(COc3ccccc3)cc2)cc1 | inconclusive: 15.1 µM [inhibitor, partial curve, poor fit] | 
3 | CC(=O)c1ccc(NC(=O)Nc2ccc(Cl)cc2)cc1 | active: 12 µM | 
4 | CCOc1ccc(CCNC(=O)CCCc2nnc3n(CC(C)C)c(=O)c4sccc4n23)cc1 |  | inactive: 5.94%
5 | CCOC(=O)c1cc(S(=O)(=O)Nc2ccc(OC)c(Cl)c2)[nH]n1 | inconclusive: 16.9 µM [inhibitor, partial curve, poor fit] | 
6 | COc1cc(/C=C/C(=O)c2ccc(NS(=O)(=O)c3ccc(C)cc3)cc2)cc(OC)c1O |  | inactive: -3.34%
7 | c1ccc(Nc2nc(NCc3ccco3)c3ccccc3n2)cc1 | inconclusive: 21.3 µM [inhibitor, single point] | 
8 | CC1=C(C)CC(C(=O)NNC(=O)c2csc(C)c2C)C(C(=O)O)C1 (stereo not drawn) |  | inactive: 1.84%
9 | COc1ccc2nc(NC(=O)CSc3nc(SC)ns3)sc2c1 | inconclusive: 5.36 µM [inhibitor, partial curve, poor fit] | 
10 | O=C1C=CC(=O)N1c1ccc(O)cc1 | inconclusive: 12 µM [inhibitor, partial curve] | 
11 | CCCCC(=O)c1c(O)c2ccccc2oc1=O | inconclusive: 23.9 µM [inhibitor, single point] | 
12 | O=C(O)c1cc(-c2ccc(/C=c3\sc4nc5ccc(Br)cc5n4c3=O)o2)ccc1Cl | inconclusive: 13.5 µM [inhibitor, partial curve, poor fit] | 
13 | O=C(NC(=S)N1CCN(c2nc(-c3ccccc3)cs2)CC1)c1cccnc1 | inconclusive: 37.9 µM [inhibitor, partial curve, poor fit] | 
14 | COC(=O)c1ccc(-c2ccc(/C=N/NC(=O)CC3(C)OCCCO3)o2)cc1 | inconclusive: 23.9 µM [inhibitor, partial curve] | 
15 | Cc1ccc2nc(SCC(=O)NCc3ccc4c(c3)OCO4)nc(=O)n2c1 |  | inactive: 9.22%
16 | CC(C)(C)c1ccc(C(=O)Nc2ccccc2C(=O)NCCN2CCOCC2)cc1 | active: 5.36 µM | 
17 | Cc1ccc(C)c(C(=O)COC(=O)CNS(=O)(=O)c2ccccc2)c1 | inconclusive: 21.3 µM [inhibitor, partial curve, poor fit] | 
18 | COC(=O)N/N=C/c1cc(N=Nc2ccccc2)ccc1O | inconclusive: 7.57 µM [inhibitor, partial curve] | 
19 | Cc1cc(/C=C2/C(=N)N3C(=NC2=O)SN=C3S(C)(=O)=O)c(C)n1-c1ccc(F)cc1 | active: 1.51 µM | 
20 | CCc1ccc(N=c2c([N+](=O)[O-])nn(-c3ccc4c(c3)OCCO4)n2O)cc1 | inconclusive: 37.9 µM [inhibitor, partial curve, poor fit] | 
21 | O=C(Nc1ccc(Cl)c(Cl)c1)c1ccc2c(c1)OCO2 | active: 1.51 µM | 
22 | O=C(Nc1nnc(SCc2c(Cl)cccc2Cl)s1)C1CC(=O)N(c2ccc3c(c2)OCCO3)C1 (stereo not drawn) | inconclusive: 23.9 µM [inhibitor, partial curve, poor fit] | 

Row | SMILES | Potency | activity change, negative = inhibition
23 | CCOC(=O)c1ccc(NC(=O)CSc2nccn2C)cc1 | inconclusive: 19 µM [inhibitor, partial curve] | 
24 | Cc1cc(N/N=C/c2cccc([N+](=O)[O-])c2)nc(-n2nc(C)cc2C)n1 |  | inactive: -1.91%
25 | COc1cccc(-c2nc(SCC(=O)Nc3ccc4c(c3)OCO4)c(-c3ccccc3)[nH]2)c1 | inconclusive: 8.49 µM [inhibitor, partial curve, poor fit] | 
26 | CCOC(=O)CSc1nnc(NC(=O)c2cccc([N+](=O)[O-])c2)s1 | active: 10.7 µM | 
27 | Cc1ccc(NC(=O)COC(=O)Cc2csc(-c3ccc(Cl)cc3)n2)cc1C | inconclusive: 21.3 µM [inhibitor, partial curve] | 
28 | O=c1nc(Nc2ccccc2)oc2ccccc12 | active: 16.9 µM | 
29 | Cc1cc(=O)n2nc(-c3ccc(C(F)(F)F)cc3)sc2n1 | inconclusive: 15.1 µM [inhibitor, partial curve] | 
30 | Cc1[nH][nH]c(=O)c1C(c1ccc(-c2ccc(F)cc2)o1)c1c(C)[nH][nH]c1=O | inconclusive: 37.9 µM [inhibitor, partial curve, poor fit] | 
31 | CC(C)c1ccc2c(c1)C1Cc3ccccc3C1N2 (stereo not drawn) | active: 15.1 µM | 
32 | COC(=O)CSc1nc(C)c(C(C)=O)cc1C#N | inconclusive: 30.1 µM [inhibitor, partial curve, poor fit] | 
33 | CN(CC(=O)NCCCc1ccccc1)S(=O)(=O)c1ccc(Br)cc1 |  | inactive: -2.39%
34 | COc1ccccc1OCc1csc(NC(=O)c2ccco2)n1 | inconclusive: 21.3 µM [inhibitor, single point] | 
35 | Cc1noc(NS(=O)(=O)c2ccc(NC(=O)c3oc4ccc(Cl)cc4c3C)cc2)c1C | active: 16.9 µM | 
36 | Cc1c(C(=O)/C=C/N(C)C)nnn1-c1ccc(Cl)c(Cl)c1 | inconclusive: 26.9 µM [inhibitor, partial curve, poor fit] | 
37 | O=C(NCc1ccccc1)c1ccc2c(c1)OCCO2 | inconclusive: 33.8 µM [inhibitor, partial curve, poor fit] | 
38 | CCc1ccc(/C(C)=N\Nc2ccc([N+](=O)[O-])cc2)cc1 | inconclusive: 26.9 µM [inhibitor, single point] | 
39 | CC(=O)c1ccc(NC(=O)c2ccc3nc(C)sc3c2)cc1 | inconclusive: 30.1 µM [inhibitor, single point] | 
40 | O=C(CC1Sc2ccccc2NC1=O)Nc1cccc(-c2nnc3n2CCCCC3)c1 (stereo not drawn) | inconclusive: 33.8 µM [inhibitor, single point] | 
41 | COc1ccc(-c2noc(-c3ccc(NCc4ccc(C)cc4)c([N+](=O)[O-])c3)n2)cc1OC | inconclusive: 8.49 µM [inhibitor, partial curve] | 
42 | CCn1cc([N+](=O)[O-])c(C(=O)Nc2ccn(Cc3ccccc3)n2)n1 |  | inactive: 3%
43 | CCn1c(=O)cc(SCC(=O)Nc2cc(OC)c(OC)c(OC)c2)c2ccccc21 |  | inactive: -1.6%

— PubChem BioAssay AID588342 (National Center for Advancing Translational Sciences (NCATS), 2011)
